PMC12136788
The list shows a part of the results.

T1: UNK ZnF1-6 (called full-length) (human, UniProt Q9C0B0 30-357)
T1 sequence: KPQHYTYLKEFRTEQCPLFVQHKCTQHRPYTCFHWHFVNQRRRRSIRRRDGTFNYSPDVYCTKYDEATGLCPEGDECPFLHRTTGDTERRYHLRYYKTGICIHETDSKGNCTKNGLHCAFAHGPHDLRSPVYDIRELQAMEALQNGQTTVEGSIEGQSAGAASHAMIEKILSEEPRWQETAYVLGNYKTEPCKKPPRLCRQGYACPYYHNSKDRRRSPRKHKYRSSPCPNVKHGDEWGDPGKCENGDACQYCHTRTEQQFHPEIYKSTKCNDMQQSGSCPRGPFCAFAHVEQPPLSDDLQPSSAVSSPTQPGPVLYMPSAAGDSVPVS

B1: chr15:34983303:34983404:-|CDS|ENSG00000198146|msi1|total|mutant (ssRNA)
RNA: GGGAGUUCUACAGUCCGACGAUCGCUGAAAACAAUUUAAAAAUGCUAAAGAUUCAACAGUGUGUGGCCGCCAACAAACUACCCCGAAACAGGCCAUAUGUUUGCAAUAUUUGUUUUAAGCACUUUGAAACACCAUCAAAAUUACAACAGAGGAUUGAGCAUCA
B2: chr7:82953248:82953350:-|CDS|ENSG00000186472|unk|FALSE|unique (ssRNA)
RNA: GGGAGUUCUACAGUCCGACGAUCAACAGAUAUACACCCCAAACCAACAGGCCUAUCUUUAACUUCAAGUAUGACCUUAAAUUUAGUGACUUCAGCAGAUUAUAAAUUGCCUUCCCCUACCUCCCCACUUUCCCCACACUCCAACAACAGAGGAUUGAGCAUCA
B3: ENSG00000079246:stop:overlap|stop_codon|ENSG00000079246|stop_codon|NA|stop_codon (ssRNA)
RNA: GGGAGUUCUACAGUCCGACGAUCGAGACACAGCAGCUGUAUUUGAAGAAGGUGGUGAUGUGGACGAUUUAUUGGACAUGAUAUAGGUCGUGGAUGUAUGGGGAAUCUAAGAGAGCUGCCAUCGCUGUGAUGCUGGGAGUUCUACAACAGAGGAUUGAGCAUCA
B4: ENSG00000103429:stop:overlap|stop_codon|ENSG00000103429|stop_codon|NA|stop_codon (ssRNA)
RNA: GGGAGUUCUACAGUCCGACGAUCAACUGAAUGUGAACACAGCAGGUGUGAGAUGUCAUCUUGGAAGACAGGCCUUGCAGAAAUAGGCCUACAUCCAAAAUAUUAUCUUGUGACUCCAUGAACCAUUCAUUAACCCUUUGUAUCCAACAGAGGAUUGAGCAUCA
B5: chr15:41480918:41481019:+|3pUTR|ENSG00000137815|msi1|FALSE|unique (ssRNA)
RNA: GGGAGUUCUACAGUCCGACGAUCCCUCCCCCAGGGCCCCACCCAGUGUGGGCCUGGGCUCUCUUGGGCUUUAUCCAUGUCUUUAGAUUUGUGUUUGCCUUUUGUUUUUUUAACCGCGCAGUUCAUUGGCCACUCUGCACGCAUCAACAGAGGAUUGAGCAUCA
B6: chr8:86558718:86558819:+|3pUTR|ENSG00000085719|unk|total|mutant (ssRNA)
RNA: GGGAGUUCUACAGUCCGACGAUCCUGUUGUUGUUUUUGUUUACUUUCAUAUGAUGAAAAUGCUGUGUUUAAGUGUUUGUCAACCGGAAGAAUGGAAAACUGUUGGGAUGAUGUGGUUUGCAGGUUGCUGUGCCUGAUUCACAGCAACAGAGGAUUGAGCAUCA
B7: chr10:72011937:72012038:+|3pUTR|ENSG00000122863|msi1|total|mutant (ssRNA)
RNA: GGGAGUUCUACAGUCCGACGAUCCAUACACCGCAGGUGGUCACCGAGUUAUUUUCCAAAAGCUGAGGAACAUAAAGCAAAUUCCGGCUUUUGUCCUUCUGCAAUACAUGCACUUGAAAAUAAACAGAAAAGAGAUGUUUAAUACAACAGAGGAUUGAGCAUCA
B8: chr7:73478266:73478367:-|CDS|ENSG00000009954|unk|FALSE|unique (ssRNA)
RNA: GGGAGUUCUACAGUCCGACGAUCGAGUGGCUCGCCACUCAAAGUGAAGAACUCAAAGAAUUCCAAAUCUCCUGAAGAACAUCUAGAAGAAAUGAUGAAGAUGAUGUCGCCCAAUAAGCUGCACACUAACUUUCACAUUCCUAACAACAGAGGAUUGAGCAUCA
B9: chr10:30312946:30313047:-|3pUTR|ENSG00000107951|unk|FALSE|unique (ssRNA)
RNA: GGGAGUUCUACAGUCCGACGAUCUCUUAUUCACAUAUAAAUUAAAGUGGGUUGGUACUGAUAUCAAAAAAUGUUUAUGUUUUUAGAACAGACAUUUCAGUCACUGCAUUCUUAGGUAUUCCAAACCAAAUAUGAUGACAUCAACAACAGAGGAUUGAGCAUCA
B10: ENSG00000136451:be:win_851|CDS|ENSG00000136451|bound_else_gene|NA|bound_elsewhere_windowed (ssRNA)
RNA: GGGAGUUCUACAGUCCGACGAUCAAGGCAAGGUAUCAUGUAACAUCUGUGGGAAGCUCCUGAGUGCAGCAUACAUCACCAGCCACUUAAAGACUCAUGGGCAGAGCCAAAGUAUCAACUGUAAUACAUGUAAACAAGGCAUCACAACAGAGGAUUGAGCAUCA
B11: chr10:71816509:71816622:-|3pUTR|ENSG00000197746|msi1_unk|FALSE|overlapping (ssRNA)
RNA: GGGAGUUCUACAGUCCGACGAUCUGCCUACAUGUCCCUGGCUGUUGAGGCGCUGCUUCAGCCUGCACCCCUCCCUUGUCUCAUAGAUGCUCCUUUUGACCUUUUCAAAUAAAUAUGGAUGGCGAGCUCCUAGGCCUCUGGCUUCAACAGAGGAUUGAGCAUCA
B12: chr19:45711045:45711146:-|3pUTR|ENSG00000177051|msi1|total|mutant (ssRNA)
RNA: GGGAGUUCUACAGUCCGACGAUCGAAUUGGGGGCUGUCAGGUCACAGGUGGGAUCUGGCAUUUUUUUAUGACAGUCCAUUUCCCGAUGGUUUGCCUAUUAAAGAAGUGGGGGGGAAAUACUGUUUUCUCCUUAACCUCAAGCUCAACAGAGGAUUGAGCAUCA
B13: chr16:87831719:87831834:-|3pUTR|ENSG00000103257|msi1_unk|FALSE|overlapping (ssRNA)
RNA: GGGAGUUCUACAGUCCGACGAUCCCUGCGUUUGGAGGCCCCUGGGCUCUCACCCAGUCCCCACCCGCCUGCAGAGAGGGAACUAGGGCACCCCUUGUUUCUGUUGUUCCCGUGAAUUUUUUUCGCUAUGGGAGGCAGCCGAGGCAACAGAGGAUUGAGCAUCA
B14: chr1:36287001:36287112:+|CDS|ENSG00000054118|unk|FALSE|unique (ssRNA)
RNA: GGGAGUUCUACAGUCCGACGAUCCCCCUCCAGUCUGUGGUGGUGAGGCGGCGGUCACCCCGUCCUAGCCCCGUGCCAAAACCUAGUCCUCCACUUUCCAGCACAUCCCAGAUGGGCUCAACUCUGCCGAGUGGUGCCGGGUAUCAACAGAGGAUUGAGCAUCA
B15: ENSG00000070961:be:win_3851|3pUTR|ENSG00000070961|bound_else_gene|NA|bound_elsewhere_windowed (ssRNA)
RNA: GGGAGUUCUACAGUCCGACGAUCUUUUUGGGGGGUGGGAGAAAUGAACUGACAGAUAAACAGUAACUCAGCGUAAGUGACCUGUGGAUCAUCAGUAGUACCCAAGCAUGGUCCUGAACAGUGUAUUAGCAGAGCUUUAGUUUACAACAGAGGAUUGAGCAUCA
B16: chr21:25758092:25758193:+|CDS|ENSG00000154727|unk|FALSE|unique (ssRNA)
RNA: GGGAGUUCUACAGUCCGACGAUCGAAUUCAGCAUGACCGAUAUAGACCUCACCACACUCAACAUUUCGGGGAGAGAAUUAUGUAGUCUCAACCAAGAAGAUUUUUUUCAGCGGGUUCCUCGGGGAGAAAUUCUCUGGAGUCAUCAACAGAGGAUUGAGCAUCA
B17: chr11:60923185:60923286:+|3pUTR|ENSG00000110108|msi1|FALSE|unique (ssRNA)
RNA: GGGAGUUCUACAGUCCGACGAUCCAGAGAGCAGGGUGAGCUGCCAGCUGCCCCUCUCCACCAGGGUACCCUGUCUUGGUGGUUAGGGGCCACUUUUCCUUUGAGGCUCUAGUGGAGGUGGAUGUCCUUCUCUGCCAGGCUUGGCAACAGAGGAUUGAGCAUCA
B18: chr6:52500910:52501011:-|3pUTR|ENSG00000065308|msi1|total|mutant (ssRNA)
RNA: GGGAGUUCUACAGUCCGACGAUCUAAUAACUGCAAAUCGCAUGUUCAGCCAGCAGCCUCCUAAGCCCACCUUCCUCCCCCAUCCGAGAACACCCAUCCCCGGUGCUCUCCAGGCUGUGUCAUUGGCAGGGCUUCACAUGCAGGCAACAGAGGAUUGAGCAUCA
B19: chr9:132670296:132670397:+|5pUTR|ENSG00000125484|msi1|FALSE|bound_elsewhere (ssRNA)
RNA: GGGAGUUCUACAGUCCGACGAUCCCUCCCCUUUACCGCCCCGUGCGUUUCCUCAGCACUUUAGGAACUAAAGCCUGUCUGGGUAGCUCCCUAACAGGCUCUGGAGCUCAAUCCCUGGGCAGGGAAAAGGGGGUCCUCGGGGCUCAACAGAGGAUUGAGCAUCA
B20: ENSG00000107863:be:win_1451|CDS|ENSG00000107863|bound_else_gene|NA|bound_elsewhere_windowed (ssRNA)
RNA: GGGAGUUCUACAGUCCGACGAUCCAUCUGUUAGUUUUAGUAAUCAUAGAACUCGUUCAUGGGAUUAUAUUGAGGGACAGGAUGAAACCUUAGAAAAUGUCAAUUCUGGAACUCCAAUACCUGAUUCCAAUGGAGAGAAAAAACCAACAGAGGAUUGAGCAUCA
B21: chr9:99150529:99150630:+|3pUTR|ENSG00000106799|msi1|total|mutant (ssRNA)
RNA: GGGAGUUCUACAGUCCGACGAUCCAUUUGUUAUGUAUGCCGGAGUAAACGUUCGGUGGAUCCUCUGUCUUUGUAACUGAGGUCCGAGCCCGUGUGGUUUUGAGGUCUCACUACACUUUGAGGAAGGCAGCUUUUAAUUCAGUGCAACAGAGGAUUGAGCAUCA
B22: chr5:113019263:113019364:+|3pUTR|ENSG00000172795|msi1|total|mutant (ssRNA)
RNA: GGGAGUUCUACAGUCCGACGAUCCUCAACUGUGAAUGAAAUUCCGAAAGAUAAUUCUUCAGCAGUUGGUUGAUCCGAUGGGUCCGUGCUUUUGGAAUAUAUAACAGCCGACUUGUAUUCUUUAUGCACUAUACAUAUGAUACGCAACAGAGGAUUGAGCAUCA

target: T1, UNK ZnF1-6 (called full-length); test: nsRBNS (natural sequence RNA bind-n-seq); RBNS binding buffer (assumed for nsRBNS): 25 mM Tris pH 7.5, 150 mM KCl, 3 mM MgCl2, 0.01% Triton X-100, 500 ug/ml BSA, 20 U/ml SUPERase-In, 4 C; UNK is unkempt and MSI1 is Musashi-1; names of the RNAs are library labels; protein concentration not given here; high values mean tight binding

Binder | binding signal [enrichment R]
B1 | 0.28
B2 | 1.36
B3 | 0.46
B4 | 0.863
B5 | 0.998
B6 | 0.466
B7 | 0.34
B8 | 0.258
B9 | 0.618
B10 | 0.5
B11 | 1.16
B12 | 0.615
B13 | 0.701
B14 | 0.741
B15 | 1.18
B16 | 0.864
B17 | 0.595
B18 | 0.771
B19 | 0.601
B20 | 1.8
B21 | 0.449
B22 | 0.279
